Data published in the supplement of paper PMC4967469.
By IC50 is meant the dose at which the fit gives 50% viability; fits outside the tested doses are given as limits. AUC sums up the same curve from the lowest dose to the 256-fold higher top dose; it is 1 without any effect and falls as sensitivity rises. The top dose, if marked as inferred, was derived from the fitted curves, not read from the paper.

The cell lines below were run with O=C1NC(=O)/C(=C\c2ccc3nccnc3c2)S1 [AS605240] (assay: Viability of human cancer cell lines after 72 h of drug (GDSC screen)). Settings: top dose inferred.
Experimental: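 Human cancer cell lines in 384-well plates, medium with 10% serum, drug for 72 h over a 256-fold dose range (nine 2-fold or five 4-fold steps up to the top dose). Adherent lines were fixed and stained with the nucleic acid dye Syto60, suspension lines read with resazurin; signal relative to control wells, capped at 0 and 100%. One two-parameter sigmoid per drug and line, fitted in a mixed model over all curves with the slope shared within a line.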

In order of falling AUC:
1. SK-MG-1 (glioma, adherent, top dose 20 µM)  0.987
2. SKG-IIIa (cervix, adherent, top dose 20 µM)  0.981
3. SKN (uterus, adherent, top dose 20 µM)  0.98
4. SNU-C2B (large intestine, adherent, top dose 20 µM)  0.979
5. SK-UT-1 (soft tissue, adherent, top dose 20 µM)  0.976
6. STS-0421 (soft tissue, adherent, top dose 20 µM)  0.973
7. SU-DHL-4 (B-cell lymphoma, suspension, top dose 20 µM)  0.966
8. SN12C (kidney, adherent, top dose 20 µM)  0.958
9. SNU-475 (liver, adherent, top dose 20 µM)  0.956
10. SNU-C1 (large intestine, suspension, top dose 20 µM)  0.945
11. SK-N-DZ (neuroblastoma, adherent, top dose 20 µM)  0.944
12. SNB75 (glioma, adherent, top dose 20 µM)  0.931
13. SK-PN-DW (Ewing sarcoma, adherent, top dose 20 µM)  0.924
14. SU-DHL-1 (anaplastic large cell lymphoma, suspension, top dose 20 µM)  0.896
15. SK-N-FI (neuroblastoma, adherent, top dose 20 µM)  0.887
16. SNG-M (endometrium, adherent, top dose 20 µM)  0.884
17. SNU-175 (large intestine, suspension, top dose 20 µM)  0.87
18. SK-MM-2 (myeloma, suspension, top dose 20 µM)  0.867
19. SKN-3 (head and neck, adherent, top dose 20 µM)  0.865
20. SK-MEL-5 (melanoma, adherent, top dose 20 µM)  0.862
21. SK-OV-3 (ovary, adherent, top dose 20 µM)  0.861
22. SR (lymphoid neoplasm, suspension, top dose 20 µM)  0.857
23. SK-MEL-3 (melanoma, adherent, top dose 20 µM)  0.848
24. SNU-398 (liver, adherent, top dose 20 µM)  0.846
25. SNU-C5 (large intestine, adherent, top dose 20 µM)  0.825
26. SK-N-SH (neuroblastoma, adherent, top dose 20 µM)  0.823
27. ST486 (Burkitt lymphoma, suspension, top dose 20 µM)  0.815
28. SU8686 (pancreas, adherent, top dose 20 µM)  0.794
29. SNU-449 (liver, adherent, top dose 20 µM)  0.764
30. SK-MEL-28 (melanoma, adherent, top dose 20 µM)  0.738
31. SNU-182 (liver, adherent, top dose 10.24 µM)  0.735
32. SNU-1040 (large intestine, adherent, top dose 20 µM)  0.717
33. SNU-423 (liver, adherent, top dose 20 µM)  0.69
34. SK-MES-1 (lung squamous cell carcinoma, adherent, top dose 20 µM)  0.67
35. SNU-407 (large intestine, adherent, top dose 20 µM)  0.667
36. SLVL (B-cell lymphoma, suspension, top dose 20 µM)  0.643
37. SNU-81 (large intestine, adherent, top dose 20 µM)  0.605
38. SNU-387 (liver, adherent, top dose 20 µM)  0.572
39. SNU-61 (large intestine, adherent, top dose 20 µM)  0.466
40. SK-MEL-30 (melanoma, adherent, top dose 20 µM)  0.258
41. SK-N-AS (neuroblastoma, adherent, top dose 20 µM)  0.218

Going from “SK-MEL-3 (melanoma, adherent, top dose 20 µM)” to “SK-MEL-5 (melanoma, adherent, top dose 20 µM)”, the IC50 rises from 18.6 µM to over 20 µM.

Compared with “SK-MEL-28 (melanoma, adherent, top dose 20 µM)”, “SK-MEL-30 (melanoma, adherent, top dose 20 µM)” is 24-fold lower in IC50: 5.88 µM for the first, 0.242 µM for the second.

Going from “SK-MES-1 (lung squamous cell carcinoma, adherent, top dose 20 µM)” to “SK-MG-1 (glioma, adherent, top dose 20 µM)”, the IC50 rises from 3.89 µM to over 20 µM.

Compared with “SK-MM-2 (myeloma, suspension, top dose 20 µM)”, “SK-N-AS (neuroblastoma, adherent, top dose 20 µM)” is 120-fold lower in IC50: 19.5 µM for the first, 0.161 µM for the second.

“SK-N-DZ (neuroblastoma, adherent, top dose 20 µM)” and “SK-N-FI (neuroblastoma, adherent, top dose 20 µM)” cannot be ordered by IC50: over 20 µM for the first, over 20 µM for the second.

First: SK-N-SH (neuroblastoma, adherent, top dose 20 µM)
Second: SK-OV-3 (ovary, adherent, top dose 20 µM)
The IC50 of the first is lower: 11.6 µM for the first, over 20 µM for the second.

“SK-PN-DW (Ewing sarcoma, adherent, top dose 20 µM)” and “SK-UT-1 (soft tissue, adherent, top dose 20 µM)” cannot be ordered by IC50: over 20 µM for the first, over 20 µM for the second.

“SKG-IIIa (cervix, adherent, top dose 20 µM)” and SKN (uterus, adherent, top dose 20 µM) cannot be ordered by IC50: over 20 µM for the first, over 20 µM for the second.

First: SKN-3 (head and neck, adherent, top dose 20 µM)
Second: SLVL (B-cell lymphoma, suspension, top dose 20 µM)
The IC50 of the first is higher: over 20 µM for the first, 3.18 µM for the second.

“SN12C (kidney, adherent, top dose 20 µM)” and “SNB75 (glioma, adherent, top dose 20 µM)” cannot be ordered by IC50: over 20 µM for the first, over 20 µM for the second.

Going from “SNG-M (endometrium, adherent, top dose 20 µM)” to “SNU-61 (large intestine, adherent, top dose 20 µM)”, the IC50 falls from over 20 µM to 0.98 µM.

Going from “SNU-81 (large intestine, adherent, top dose 20 µM)” to “SNU-175 (large intestine, suspension, top dose 20 µM)”, the IC50 rises from 2.69 µM to 16.7 µM (6.2-fold).

First: SNU-182 (liver, adherent, top dose 10.24 µM)
Second: SNU-387 (liver, adherent, top dose 20 µM)
The IC50 of the first is 1.5-fold higher: 3.11 µM for the first, 2.02 µM for the second.

Going from “SNU-398 (liver, adherent, top dose 20 µM)” to “SNU-407 (large intestine, adherent, top dose 20 µM)”, the IC50 falls from 15.4 µM to 3.96 µM (3.9-fold).

First: SNU-423 (liver, adherent, top dose 20 µM)
Second: SNU-449 (liver, adherent, top dose 20 µM)
The IC50 of the first is 1.7-fold lower: 4.72 µM for the first, 7.92 µM for the second.

Compared with “SNU-475 (liver, adherent, top dose 20 µM)”, “SNU-1040 (large intestine, adherent, top dose 20 µM)” is lower in IC50: over 20 µM for the first, 6.45 µM for the second.

“SNU-C1 (large intestine, suspension, top dose 20 µM)” and “SNU-C2B (large intestine, adherent, top dose 20 µM)” cannot be ordered by IC50: over 20 µM for the first, over 20 µM for the second.

“SNU-C5 (large intestine, adherent, top dose 20 µM)” and “SR (lymphoid neoplasm, suspension, top dose 20 µM)” are within 1.5-fold of each other in IC50: 13.6 µM for the first, 13.7 µM for the second.

First: ST486 (Burkitt lymphoma, suspension, top dose 20 µM)
Second: STS-0421 (soft tissue, adherent, top dose 20 µM)
The IC50 of the first is lower: 9.43 µM for the first, over 20 µM for the second.

“SU8686 (pancreas, adherent, top dose 20 µM)” and “SU-DHL-1 (anaplastic large cell lymphoma, suspension, top dose 20 µM)” are within 1.5-fold of each other in IC50: 10.5 µM for the first, 12.5 µM for the second.

With “SU-DHL-4 (B-cell lymphoma, suspension, top dose 20 µM)” the IC50 was over 20 µM.
